Assay results: the supplement of paper PMC4166925
± gives the standard deviation of the averaged measurements. In all, about 33,000 sequences were measured (“E-score (dimensionless, -0.5 to 0.5)”: median about -0.046, highest 2% from about 0.36 on). This is one part of the list.
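Also: protein at 200 nM in PBS on universal double-stranded arrays.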

These sequences were tested on T1, SpTbr T-box DNA-binding domain (GST fusion) (assay: PBM E-score of 8-mer (E-score (dimensionless, -0.5 to 0.5)); Tbr is Tbrain of the sea star Patiria miniata (Pm) or the sea urchin Strongylocentrotus purpuratus (Sp); higher = stronger binding preference; most listed sequences are background and not binding sites). Conditions: the construct has about 5 more residues each side.
T1 sequence: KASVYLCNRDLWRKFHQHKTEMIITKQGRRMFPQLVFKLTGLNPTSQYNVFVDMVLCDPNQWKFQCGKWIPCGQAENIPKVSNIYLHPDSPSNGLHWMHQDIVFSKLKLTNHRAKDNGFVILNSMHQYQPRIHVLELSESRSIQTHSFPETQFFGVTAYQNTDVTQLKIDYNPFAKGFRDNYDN
Experimental: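 Universal protein-binding microarray (Agilent AMADID 016060, 60-bp probes with a 35-bp variable region) incubated with 200 nM GST-fused Strongylocentrotus purpuratus Tbr T-box DNA-binding domain (residues 362-554) in PBS pH 7.5. Scored for every ungapped 8-mer (given with its reverse complement) as E-score (range -0.5 to 0.5; >0.45 counts as bound) and Z-score of median probe intensity. Two replicate arrays (datasets 1 and 2).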
AACTCATA was tested, and the “PBM E-score of 8-mer” value was 0.033 ± 0.0023.
AGTTATAT was tested, and the “PBM E-score of 8-mer” value was -0.0883 ± 0.031.
With GTACGAAA the “PBM E-score of 8-mer” value was 0.135 ± 0.032.
ACTCTAGG was tested, and the “PBM E-score of 8-mer” value was -0.093 ± 0.0039.
GAACTATA was tested, and the “PBM E-score of 8-mer” value was -0.192 ± 0.11.
For GAACATTA, the “PBM E-score of 8-mer” value was -0.0252 ± 0.005.
For ATTGCCTG, the “PBM E-score of 8-mer” value was -0.225 ± 0.039.
AGGGCCTG was tested, and the “PBM E-score of 8-mer” value was -0.172 ± 0.0038.
In the case of CCATCACA, the “PBM E-score of 8-mer” value is reported as 0.364 ± 0.035.
For CACGGATG, the “PBM E-score of 8-mer” value was 0.154 ± 0.011.
With AACTGATG the “PBM E-score of 8-mer” value was 0.102 ± 0.032.
For AAAGGGTA, the “PBM E-score of 8-mer” value was -0.055 ± 0.054.
For AAGCGCCC, the “PBM E-score of 8-mer” value was -0.00863 ± 0.0021.
TCAAATCA was tested, and the “PBM E-score of 8-mer” value was -0.131 ± 0.028.
CGAGTCTA was tested, and the “PBM E-score of 8-mer” value was -0.213 ± 0.033.
For CAAGGGGA, the “PBM E-score of 8-mer” value was -0.184 ± 0.0056.
In the case of AAAAACCT, the “PBM E-score of 8-mer” value is reported as -0.128 ± 0.07.
In the case of CTGCCCGA, the “PBM E-score of 8-mer” value is reported as -0.109 ± 0.056.
In the case of AGTATTAG, the “PBM E-score of 8-mer” value is reported as 0.00194 ± 0.014.
CGGTGACC was tested, and the “PBM E-score of 8-mer” value was 0.0338 ± 0.011.
For AGCAACCA, the “PBM E-score of 8-mer” value was -0.0779 ± 0.012.
In the case of AAATCGGC, the “PBM E-score of 8-mer” value is reported as -0.171 ± 0.029.
With ATCAGCCC the “PBM E-score of 8-mer” value was -0.252 ± 0.0045.
With CCATATTC the “PBM E-score of 8-mer” value was 0.00652 ± 0.029.
With CAATGTCC the “PBM E-score of 8-mer” value was -0.209 ± 0.016.
ACCTTCGG was tested, and the “PBM E-score of 8-mer” value was -0.00505 ± 0.058.
For GTGTTTCA, the “PBM E-score of 8-mer” value was 0.186 ± 0.021.
AAAGGAAA was tested, and the “PBM E-score of 8-mer” value was -0.08558 ± 0.00078.
With ATGTAACA the “PBM E-score of 8-mer” value was 0.083 ± 0.054.
In the case of CTCGGCGA, the “PBM E-score of 8-mer” value is reported as -0.0214 ± 0.13.
For GCTATAAC, the “PBM E-score of 8-mer” value was 0.0717 ± 0.048.
AGGAAGGC was tested, and the “PBM E-score of 8-mer” value was -0.0481 ± 0.024.
For CCCCACCC, the “PBM E-score of 8-mer” value was 0.104 ± 0.14.
With CCCTACGC the “PBM E-score of 8-mer” value was -0.064 ± 0.012.
For CTTCAGAA, the “PBM E-score of 8-mer” value was -0.243 ± 0.094.
In the case of GCCTGAAC, the “PBM E-score of 8-mer” value is reported as -0.229 ± 0.023.
GGGCCACC was tested, and the “PBM E-score of 8-mer” value was -0.173 ± 0.023.
For AAATCTAA, the “PBM E-score of 8-mer” value was -0.0232 ± 0.061.
For AGTTTTGA, the “PBM E-score of 8-mer” value was 0.042 ± 0.037.
ACTCTAAT was tested, and the “PBM E-score of 8-mer” value was -0.178 ± 0.017.
With GATCCTCC the “PBM E-score of 8-mer” value was 0.0423 ± 0.024.
In the case of GCAGCAAA, the “PBM E-score of 8-mer” value is reported as -0.0578 ± 0.11.
ACTCCAAC was tested, and the “PBM E-score of 8-mer” value was 0.143 ± 0.058.
CGGGGGGC was tested, and the “PBM E-score of 8-mer” value was -0.245 ± 0.062.
In the case of GGGCCCAA, the “PBM E-score of 8-mer” value is reported as -0.223 ± 0.0063.
In the case of CACGTGTC, the “PBM E-score of 8-mer” value is reported as 0.391 ± 0.014.
With GGGATTGA the “PBM E-score of 8-mer” value was -0.147 ± 0.005.
With GTGCCAGA the “PBM E-score of 8-mer” value was 0.189 ± 0.034.
In the case of CGGTATAC, the “PBM E-score of 8-mer” value is reported as -0.00336 ± 0.018.
With GGTATGCA the “PBM E-score of 8-mer” value was -0.0506 ± 0.046.
For GCCTCACC, the “PBM E-score of 8-mer” value was 0.15 ± 0.1.
GGCTCGAC was tested, and the “PBM E-score of 8-mer” value was -0.00477 ± 0.004.
For CAGTATGC, the “PBM E-score of 8-mer” value was -0.0369 ± 0.0089.
In the case of AGTGTAAA, the “PBM E-score of 8-mer” value is reported as 0.338 ± 0.049.
For TATCTCGA, the “PBM E-score of 8-mer” value was -0.291 ± 0.061.
CGCTTGGA was tested, and the “PBM E-score of 8-mer” value was -0.222 ± 0.05.
AGAGGCCT was tested, and the “PBM E-score of 8-mer” value was -0.273 ± 0.023.
For AAGGTTGC, the “PBM E-score of 8-mer” value was -0.1197 ± 0.00093.
For ATCGATGG, the “PBM E-score of 8-mer” value was -0.0759 ± 0.07.
In the case of ATCGTAAA, the “PBM E-score of 8-mer” value is reported as -0.0751 ± 0.0094.
For GGCGTGTA, the “PBM E-score of 8-mer” value was 0.127 ± 0.0038.
For CTGGGTGA, the “PBM E-score of 8-mer” value was 0.0802 ± 0.0031.
In the case of GCAACGCA, the “PBM E-score of 8-mer” value is reported as 0.19 ± 0.071.
CGGTGTCC was tested, and the “PBM E-score of 8-mer” value was -0.0339 ± 0.0071.
For ACTTTTTA, the “PBM E-score of 8-mer” value was -0.0533 ± 0.027.
For TGCCCTAA, the “PBM E-score of 8-mer” value was -0.146 ± 0.066.
For AAGATAAC, the “PBM E-score of 8-mer” value was 0.11 ± 0.038.
In the case of ACGTAGCT, the “PBM E-score of 8-mer” value is reported as -0.194 ± 0.079.
GCAGCGCC was tested, and the “PBM E-score of 8-mer” value was 0.189 ± 0.062.
GCATAAAC was tested, and the “PBM E-score of 8-mer” value was 0.00539 ± 0.094.
CACTAAGA was tested, and the “PBM E-score of 8-mer” value was 0.138 ± 0.048.
In the case of CGGGCCAA, the “PBM E-score of 8-mer” value is reported as -0.0517 ± 0.019.
With ATCCTGTC the “PBM E-score of 8-mer” value was 0.00286 ± 0.012.
With ATAGCTCA the “PBM E-score of 8-mer” value was -0.223 ± 0.088.
With AACATAGT the “PBM E-score of 8-mer” value was -0.154 ± 0.013.
For AGCTGATA, the “PBM E-score of 8-mer” value was 0.00187 ± 0.049.
With AAAAAGAC the “PBM E-score of 8-mer” value was -0.0396 ± 0.011.
TCAGACGA was tested, and the “PBM E-score of 8-mer” value was -0.326 ± 0.012.
In the case of CTAAGTAC, the “PBM E-score of 8-mer” value is reported as -0.0143 ± 0.042.
For AAGAGGAC, the “PBM E-score of 8-mer” value was -0.138 ± 0.061.
CACATCAC was tested, and the “PBM E-score of 8-mer” value was 0.2963 ± 0.0014.
In the case of TCACCCGA, the “PBM E-score of 8-mer” value is reported as 0.0108 ± 0.15.
AAGAGCGG was tested, and the “PBM E-score of 8-mer” value was -0.115 ± 0.056.
With AGAGCAAT the “PBM E-score of 8-mer” value was -0.132 ± 0.0051.
In the case of CACCTTTC, the “PBM E-score of 8-mer” value is reported as 0.379 ± 0.024.
For GACATTGC, the “PBM E-score of 8-mer” value was 0.0656 ± 0.018.
In the case of ATATTTAA, the “PBM E-score of 8-mer” value is reported as -0.252 ± 0.021.
ATGGTCCC was tested, and the “PBM E-score of 8-mer” value was -0.265 ± 0.047.
For CGGTACTC, the “PBM E-score of 8-mer” value was -0.261 ± 0.013.
In the case of TACCATCA, the “PBM E-score of 8-mer” value is reported as 0.0248 ± 0.017.
In the case of AGGGGACC, the “PBM E-score of 8-mer” value is reported as -0.295 ± 0.0086.
For CGCTTTGA, the “PBM E-score of 8-mer” value was -0.182 ± 0.012.
In the case of ATAATAAA, the “PBM E-score of 8-mer” value is reported as -0.227 ± 0.08.
With AACTCGCG the “PBM E-score of 8-mer” value was 0.3 ± 0.0049.
